{
  "source": "patent US20240374736A1",
  "about": "“INHALED LIQUID FOR THE TREATMENT OF RESPIRATORY INFECTIONS IN HUMANS CAUSED BY PATHOGENS RESISTANT TO ANTIBIOTICS” (priority 2023, published 2024)",
  "system": "Histoplasma capsulatum",
  "type": "cell-based",
  "conditions": "Müler-Hinton-Agar, amount used: novel compound 0.05 mL, Cephalosporin 0.1 mL, Ampicillin 0.2 mL",
  "data": [
    {"smiles": "CC1(C)S[C@@H]2[C@H](NC(=O)[C@H](N)c3ccccc3)C(=O)N2[C@H]1C(=O)O", "note": "[Ampicilin, Ampicillin]", "values": [
      {"measurement": "R (evaluation of the results by zone diameter)", "value": "R (0 mm-4 mm: resistant: R)"},
      {"measurement": "zone diameter", "value": 2, "unit": "mm"}
    ]}
  ]
}
